Results from paper PMC11009252.
No constants are given. Whether binding was seen depends on the method and setting. Binding seen in cells or lysates may run through a third protein. Some binding calls cover weakened binding; strength is not graded here. For part of these data: Sequences can lack the tags named with a protein. Each block holds one binder with its values, some of them ahead of it.

Tests used:
[1] = target: GST-EGFR-CT-mutant (MT, L1042/1063 mutated to F) fusion protein (UniProt P00533); test: pull-down; purified GST or GST fusion proteins on beads incubated with 1 mL HEK293 cell lysate, 4 °C, 3 h; washes in 10 mM HEPES, 50 mM NaCl, 5 mM EDTA, 0.1% Tween 20; western blot; only the target purified
[2] = target: GST-EGFR-Carboxyl terminal (CT) wild type fusion protein (aa 1022-1186) (UniProt P00533); test: as above
Myc-EGFR [3] = target: Myc-EGFR (UniProt P00533); test: co-IP; MDA-MB-231 cells stably overexpressing Myc-EGFR, co-transfected with PDZK1-WT or PDZK1-MT_S2,3
Myc-EGFR [4] = target: Myc-EGFR (UniProt P00533); test: co-IP; MDA-MB-231 cells transfected with PDZK1-Flag and Myc-EGFR; anti-Myc antibody coupled to affinity gel
Myc-c-Cbl = Myc-c-Cbl (UniProt P22681); test: co-IP; MDA-MB-231 cells stably overexpressing c-Cbl, transfected with PDZK1-WT, PDZK1-MT_S1, PDZK1-MT_S1,4 or PDZK1-MT_S2,3
[5] = target: EGFR, endogenous in MDA-MB-231 cells (human (endogenous in MDA-MB-231)) (UniProt P00533); test: co-IP; endogenous proteins of MDA-MB-231 cells; anti-EGFR antibody (Fig. 1F) or anti-PDZK1 antibody (Fig. 1G) coupled to affinity gel; IgG as control

binding [1]: no binding
binding [2]: binds
B1: PDZ domain containing 1 (PDZK1), in lysates of HEK293 cells (protein, UniProt Q5T2W1 1-519)
chain: MTSTFNPRECKLSKQEGQNYGFFLRIEKDTEGHLVRVVEKCSPAEKAGLQDGDRVLRINGVFVDKEEHMQVVDLVRKSGNSVTLLVLDGDSYEKAVKTRVDLKELGQSQKEQGLSDNILSPVMNGGVQTWTQPRLCYLVKEGGSYGFSLKTVQGKKGVYMTDITPQGVAMRAGVLADDHLIEVNGENVEDASHEEVVEKVKKSGSRVMFLLVDKETDKRHVEQKIQFKRETASLKLLPHQPRIVEMKKGSNGYGFYLRAGSEQKGQIIKDIDSGSPAEEAGLKNNDLVVAVNGESVETLDHDSVVEMIRKGGDQTSLLVVDKETDNMYRLAHFSPFLYYQSQELPNGSVKEAPAPTPTSLEVSSPPDTTEEVDHKPKLCRLAKGENGYGFHLNAIRGLPGSFIKEVQKGGPADLAGLEDEDVIIEVNGVNVLDEPYEKVVDRIQSSGKNVTLLVCGKKAYDYFQAKKIPIVSSLADPLDTPPDSKEGIVVESNHDSHMAKERAHSTASHSSSNSEDTEM

binding (Myc-EGFR [3]): binds
binding (Myc-EGFR [4]): binds
binding (Myc-c-Cbl): binds
B2: PDZK1-Flag (PDZK1-WT) (protein, UniProt Q5T2W1 1-519)
chain: MTSTFNPRECKLSKQEGQNYGFFLRIEKDTEGHLVRVVEKCSPAEKAGLQDGDRVLRINGVFVDKEEHMQVVDLVRKSGNSVTLLVLDGDSYEKAVKTRVDLKELGQSQKEQGLSDNILSPVMNGGVQTWTQPRLCYLVKEGGSYGFSLKTVQGKKGVYMTDITPQGVAMRAGVLADDHLIEVNGENVEDASHEEVVEKVKKSGSRVMFLLVDKETDKRHVEQKIQFKRETASLKLLPHQPRIVEMKKGSNGYGFYLRAGSEQKGQIIKDIDSGSPAEEAGLKNNDLVVAVNGESVETLDHDSVVEMIRKGGDQTSLLVVDKETDNMYRLAHFSPFLYYQSQELPNGSVKEAPAPTPTSLEVSSPPDTTEEVDHKPKLCRLAKGENGYGFHLNAIRGLPGSFIKEVQKGGPADLAGLEDEDVIIEVNGVNVLDEPYEKVVDRIQSSGKNVTLLVCGKKAYDYFQAKKIPIVSSLADPLDTPPDSKEGIVVESNHDSHMAKERAHSTASHSSSNSEDTEM

binding [5]: binds
B3: PDZK1, endogenous in MDA-MB-231 cells (protein, UniProt Q5T2W1 1-519)
chain: MTSTFNPRECKLSKQEGQNYGFFLRIEKDTEGHLVRVVEKCSPAEKAGLQDGDRVLRINGVFVDKEEHMQVVDLVRKSGNSVTLLVLDGDSYEKAVKTRVDLKELGQSQKEQGLSDNILSPVMNGGVQTWTQPRLCYLVKEGGSYGFSLKTVQGKKGVYMTDITPQGVAMRAGVLADDHLIEVNGENVEDASHEEVVEKVKKSGSRVMFLLVDKETDKRHVEQKIQFKRETASLKLLPHQPRIVEMKKGSNGYGFYLRAGSEQKGQIIKDIDSGSPAEEAGLKNNDLVVAVNGESVETLDHDSVVEMIRKGGDQTSLLVVDKETDNMYRLAHFSPFLYYQSQELPNGSVKEAPAPTPTSLEVSSPPDTTEEVDHKPKLCRLAKGENGYGFHLNAIRGLPGSFIKEVQKGGPADLAGLEDEDVIIEVNGVNVLDEPYEKVVDRIQSSGKNVTLLVCGKKAYDYFQAKKIPIVSSLADPLDTPPDSKEGIVVESNHDSHMAKERAHSTASHSSSNSEDTEM
